Experiment [1] has as its target T1, human TNFR2 (residues 1-461) expressed on HEK-TNFR2 reporter cells (human, UniProt P20333 23-461).
T1 sequence (looked up): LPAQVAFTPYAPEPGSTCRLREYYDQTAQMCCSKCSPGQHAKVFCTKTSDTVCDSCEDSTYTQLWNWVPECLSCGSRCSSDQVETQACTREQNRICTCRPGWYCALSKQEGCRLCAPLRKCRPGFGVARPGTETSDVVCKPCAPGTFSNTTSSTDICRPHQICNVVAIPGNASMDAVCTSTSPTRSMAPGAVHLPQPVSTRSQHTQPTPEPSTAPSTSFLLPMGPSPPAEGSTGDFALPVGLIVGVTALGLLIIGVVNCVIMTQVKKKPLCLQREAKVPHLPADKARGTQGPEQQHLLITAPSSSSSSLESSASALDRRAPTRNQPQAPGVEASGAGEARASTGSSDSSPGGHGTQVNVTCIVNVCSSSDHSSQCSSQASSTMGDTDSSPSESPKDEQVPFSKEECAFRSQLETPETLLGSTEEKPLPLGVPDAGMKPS
The experiment can be described thus: cell-based or functional assay.

Experiment [2] has as its target T2, recombinant human TNFR2 with 6×his tag (human, UniProt P20333 23-257, limits assumed).
T2 construct: Bought (Reprokine, Israel); also called TNFR2-His; hTNFR2-His; not shown: 6xHis tag
T2 sequence (looked up): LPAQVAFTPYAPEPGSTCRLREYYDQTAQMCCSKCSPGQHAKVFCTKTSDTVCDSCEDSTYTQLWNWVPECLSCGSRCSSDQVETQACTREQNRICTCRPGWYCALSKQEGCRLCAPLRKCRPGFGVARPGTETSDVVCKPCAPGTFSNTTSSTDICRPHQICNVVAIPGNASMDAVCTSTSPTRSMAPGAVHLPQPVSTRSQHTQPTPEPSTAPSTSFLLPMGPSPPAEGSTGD
Briefly: ELISA, IgG coated, hTNFR2-His titrated, anti-His-HRP. As to the method: IgG binding affinity to TNFR2 was examined by ELISA. 96 well plates (Greiner Bio-One high binding) were coated with (50 ng/well) of the analyzed antibody and incubated overnight at 4° C. The plates were then washed three times with 300 μl PBS buffer containing 0.05% Tween 20 (PBS-T), blocked with 300μ PBS-T supplemented with 1% to 2% BSA, and incubated for 1 hour at room temperature. Antibodies-coated plates were washed three times with 300 μl PBS-T and incubated with serial dilutions of test ligand hTNFR2-His (Reprokine, Israel) in a final volume of […] for 1-2 hours. Plates were then washed three times with 300 μl PBS-T and incubated with 50 μl anti-HIS-HRP (Santa Cruz Biotechnology, USA, SC-8036HRP) conjugate that was diluted 1:250 in PBS. After an additional wash step of six washes, the reaction was developed with […] tetramethylbenzidine (TMB) reagent (Southern biotech, USA), and stopped with […] 0.5N H₂SO₄. Detection was done on a Synergy LX BioTek (BioTek, USA) plate reader with an absorbance filter set to […]. The binding affinity was determined by fitting the data to a specific binding non-linear regression model on Prisma 8 GraphPad software.
To test binding affinity of clones reformatted as IgG1 and IgG1LALA to TNFR2, an ELISA EC₅₀ binding experiment was conducted for each antibody.

B1: BDG30.109 (antibody, human IgG1, kappa)
heavy: QVQLVQSGAEVKKPGSSVKVSCKASGYTFTDLGIGWVRQAPGQGLEWMGWINTHTGEPYDNPKFKGRVTITADKSTSTAYMELSSLRSEDTAVYYCTRDHPLGLDYWGQGTTVTVSS[human IgG1 constant region not written out]
light: DIVMTQSPDSLAVSLGERATINCRSSQSVDVNGVSYLDWYQQKPGQPPKLLITKASNRESGVPDRFSGSGSGTDFTLTISSLQAEDVAVYYCQQNREDPYTFGGGTKVEIKRTVAAPSVFIFPPSDEQLKSGTASVVCLLNNFYPREAKVQWKVDNALQSGNSQESVTEQDSKDSTYSLSSTLTLSKADYEKHKVYACEVTHQGLSSPVTKSFNRGEC
notes: Human IgG1; also called IgG of CID_332
On to B1, for which, in experiment [1], the “Functional Agonism EC50 (nM), NFkB-SEAP reporter” value (“Functional Agonism EC50 (nM)” below) amounted to 4.2 nM. The EC50 in experiment [2] was 5.6 nM.

B2: BDG30.122 (antibody, human IgG1, kappa)
heavy: QVQLVQSGAEVKKPGSSVKVSCKASGYTFTDLGIGWVRQAPGQGLEWMGWINTHTGEPYDNPKFKGRVTITADKSTSTAYMELSSLRSEDTAVYYCTRDHPLGLDYWGQGTTVTVSS[human IgG1 constant region with changes not written out]
light: DIVMTQSPDSLAVSLGERATINCRSSQSVDVNGVSYLDWYQQKPGQPPKLLITKASNRESGVPDRFSGSGSGTDFTLTISSLQAEDVAVYYCQQNREDPYTFGGGTKVEIKRTVAAPSVFIFPPSDEQLKSGTASVVCLLNNFYPREAKVQWKVDNALQSGNSQESVTEQDSKDSTYSLSSTLTLSKADYEKHKVYACEVTHQGLSSPVTKSFNRGEC
Consider B2, for which the “Functional Agonism EC50 (nM)” value in experiment [1] came to 2.3 nM.

B3: BDG30.123 (antibody, human IgG1, kappa)
heavy: QVQLVQSGAEVKKPGSSVKVSCKGSGYTFTDLGIGWVRQAPGQGLEWMGWINTHTGEPFYNPKFKGRVTITADKSTSTAYMELSSLRSEDTAVYYCTRDHPLGLDYWGQGTTVTVSS[human IgG1 constant region with changes not written out]
light: DIVMTQSPDSLAVSLGERATINCRSSQSVDVNGVSYLNWYQQKPGQPPKFLIYKASNRESGVPDRFSGSGSGTDFTLTISSLQAEDVAVYYCQQAREDPYTFGGGTKVEIKRTVAAPSVFIFPPSDEQLKSGTASVVCLLNNFYPREAKVQWKVDNALQSGNSQESVTEQDSKDSTYSLSSTLTLSKADYEKHKVYACEVTHQGLSSPVTKSFNRGEC
For the molecule B3, the “Functional Agonism EC50 (nM)” value in experiment [1] came to 2.6 nM.

B4: BDG30.111 (antibody, human IgG1, kappa)
heavy: QVQLVQSGAEVKKPGSSVKVSCKGSGYTFTDLGIGWVRQAPGQGLEWMGWINTHTGEPFYNPKFKGRVTITADKSTSTAYMELSSLRSEDTAVYYCTRDHPLGLDYWGQGTTVTVSS[human IgG1 constant region not written out]
light: DIVMTQSPDSLAVSLGERATINCRSSQSVDVNGVSYLNWYQQKPGQPPKFLIYKASNRESGVPDRFSGSGSGTDFTLTISSLQAEDVAVYYCQQAREDPYTFGGGTKVEIKRTVAAPSVFIFPPSDEQLKSGTASVVCLLNNFYPREAKVQWKVDNALQSGNSQESVTEQDSKDSTYSLSSTLTLSKADYEKHKVYACEVTHQGLSSPVTKSFNRGEC
notes: Human IgG1; also called IgG of CID_350
For B4, the “Functional Agonism EC50 (nM)” value in experiment [1] was 7.4 nM. In addition, the EC50 in experiment [2] worked out at 3.55 nM.

B5: BDG30.046 (antibody, human IgG1, kappa)
heavy: EVQLVQSGAEVKKPGSSVKVSCKASGDTFTSYSFNWVRQAPGQGLEWMGRIITILDDTEYAPHLQGRVTITADKSTSTVYLELRNLRSDDTAVYFCAGVYEGPNSEGSYDDYGFLKHWGQGTLVTVSS[human IgG1 constant region not written out]
light: DIVMTQSPATLSVSPGERATLSCRASESVANDLAWYQQKPGQVPRLLIYGASTRATGVPARFSGSGSGAEFTLTISSLQSEDFAVYYCQQYANWPPRETFGQGTRLEIKRTVAAPSVFIFPPSDEQLKSGTASVVCLLNNFYPREAKVQWKVDNALQSGNSQESVTEQDSKDSTYSLSSTLTLSKADYEKHKVYACEVTHQGLSSPVTKSFNRGEC
notes: Human IgG1; produced in HEK cells by Genscript; also called IgG of CID_251
As to B5, the “Functional Agonism EC50 (nM)” value in experiment [1] stood at 22 nM. The EC50 in experiment [2] was determined as 13.4 nM.

B6: BDG30.201 (antibody, human IgG1, kappa)
heavy: EVQLVQSGAEVKKPGSSVKVSCKASGDTFTSYSFNWVRQAPGQGLEWMGRIITIYDDTEYAPHLQGRVTITADKSTSTVYLELRNLRSDDTAVYFCAGVYEGPNSEGSYDDYGFFKHWGQGTLVTVSS[human IgG1 constant region with changes not written out]
light: DIVMTQSPATLSVSPGERATLSCRASESVANDLAWYQQKPGQVPRLLIYGASTRATGVPARFSGSGSGAEFTLTISSLQSEDFAVYYCQQYANWPPRETFGQGTRLEIKRTVAAPSVFIFPPSDEQLKSGTASVVCLLNNFYPREAKVQWKVDNALQSGNSQESVTEQDSKDSTYSLSSTLTLSKADYEKHKVYACEVTHQGLSSPVTKSFNRGEC
Regarding B6, the “Functional Agonism EC50 (nM)” value in experiment [1] came to 20 nM.

B7: BDG30.200 (antibody, human IgG1, kappa)
heavy: EVQLVQSGAEVKKPGSSVKVSCKASGDTFTSYSFNWVRQAPGQGLEWMGRIITILDDTEYAPHLQGRVTITADKSTSTVYLELRNLRSDDTAVYFCAGVYEGPNSEGSYDDYGFLKHWGQGTLVTVSS[human IgG1 constant region with changes not written out]
light: DIVMTQSPATLSVSPGERATLSCRASESVANDLAWYQQKPGQVPRLLIYGASTRATGVPARFSGSGSGAEFTLTISSLQSEDFAVYYCQQYANWPPRETFGQGTRLEIKRTVAAPSVFIFPPSDEQLKSGTASVVCLLNNFYPREAKVQWKVDNALQSGNSQESVTEQDSKDSTYSLSSTLTLSKADYEKHKVYACEVTHQGLSSPVTKSFNRGEC
Turning to B7, the “Functional Agonism EC50 (nM)” value in experiment [1] amounted to 24.4 nM.

B8: BDG30.095 (antibody, human IgG1, kappa)
heavy: EVQLVQSGAEVKKPGSSVKVSCKASGDTFTSYSFNWVRQAPGQGLEWMGRIITIDDDTEYAPHLQGRVTITADKSTSTVYLELRNLRSDDTAVYFCAGVYEGPNSEGSYDDYGQLKHWGQGTLVTVSS[human IgG1 constant region not written out]
light: DIVMTQSPATLSVSPGERATLSCRASESVGNDLAWYQQKPGQVPRLLIYGASTRATGVPARFSGSGSGAEFTLTISSLQSEDFAVYYCQQYANVPPRETFGQGTRLEIKRTVAAPSVFIFPPSDEQLKSGTASVVCLLNNFYPREAKVQWKVDNALQSGNSQESVTEQDSKDSTYSLSSTLTLSKADYEKHKVYACEVTHQGLSSPVTKSFNRGEC
notes: Human IgG1; also called IgG of CID_284
Consider B8, for which the EC50 in experiment [2] turned out to be 4.6 nM.

B9: BDG30.119 (antibody, human IgG1, kappa)
heavy: EVQLVQSGAEVKKPGSSVKVSCKASGDTFTSYSFNWVRQAPGQGLEWMGRIITIDDDTEYAPHLQGRVTITADKSTSTVYLELRNLRSDDTAVYFCAGVYEGPNSEGSYDDYGQLKHWGQGTLVTVSS[human IgG1 constant region with changes not written out]
light: DIVMTQSPATLSVSPGERATLSCRASESVGNDLAWYQQKPGQVPRLLIYGASTRATGVPARFSGSGSGAEFTLTISSLQSEDFAVYYCQQYANVPPRETFGQGTRLEIKRTVAAPSVFIFPPSDEQLKSGTASVVCLLNNFYPREAKVQWKVDNALQSGNSQESVTEQDSKDSTYSLSSTLTLSKADYEKHKVYACEVTHQGLSSPVTKSFNRGEC
notes: Human IgG1(L234A/L235A); also called IgG of CID_284
With B9, in experiment [1], the “Functional Agonism EC50 (nM)” value was found to be 2.6 nM. The EC50 in experiment [2] stood at 1.8 nM.

B10: BDG30.117 (antibody, human IgG1, kappa)
heavy: EVQLVQSGAEVKKPGSSVKVSCKASGDTFTSYSFNWVRQAPGQGLEWMGRIITILDDTEYAPHLQGRVTITADKSTSTVYLELRNLRSDDTAVYFCAGVYEGPNSEGSYDDYGFLKYWGQGTLVTVSS[human IgG1 constant region with changes not written out]
light: DIVMTQSPATLSVSPGERATLSCRASESVAVDLAWYQQKPGQVPRLLIYGASTRATGVPARFSGSGSGAEFTLTISSLQSEDFAVYYCQQYANKPPRETFGQGTRLEIKRTVAAPSVFIFPPSDEQLKSGTASVVCLLNNFYPREAKVQWKVDNALQSGNSQESVTEQDSKDSTYSLSSTLTLSKADYEKHKVYACEVTHQGLSSPVTKSFNRGEC
notes: Human IgG1(L234A/L235A); also called IgG of CID_277
For B10, the “Functional Agonism EC50 (nM)” value in experiment [1] was 277 nM. Further, the EC50 in experiment [2] is 2.9 nM.

One may read the EC50 as the concentration needed to bring the measured effect to its halfway point.

The values are drawn from patent US20230167188A1 (BIOLOJIC DESIGN, published 2023).
